Measurements published in patent US20210024631A1 (ORIONIS BIOSCIENCES, published 2021).

Target: human Clec9A on HL116-hClec9A cells (human, UniProt Q6UXN8 1-241)
Assay: cell-based or functional assay

UniProt Q6UXN8, sequence (Q6UXN8 whole entry): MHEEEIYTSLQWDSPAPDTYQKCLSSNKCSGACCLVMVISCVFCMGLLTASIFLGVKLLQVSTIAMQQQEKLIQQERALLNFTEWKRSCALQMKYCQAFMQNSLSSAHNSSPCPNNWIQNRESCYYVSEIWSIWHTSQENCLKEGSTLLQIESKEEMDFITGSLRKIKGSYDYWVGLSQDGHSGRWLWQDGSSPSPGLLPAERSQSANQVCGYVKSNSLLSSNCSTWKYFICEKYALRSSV

- EC50, luciferase reporter on HL116-hClec9A cells: 0.3 ng/mL
B1: R1CHCL50-20*GGS-Fc3 + Fc4-20*GGS-IFNa1 (Fc fusion)
chain 1: QVQLVESGGGLVHPGGSLRLSCAASGSFSSINVMGWYRQAPGKERELVARITNLGLPNYADSVTGRFTISRDNAKNTVYLQMNSLKPEDTAVYYCYLVALKAEYWGQGTQVTVSSGGSGGSGGSGGSGGSGGSGGSGGSGGSGGSGGSGGSGGSGGSGGSGGSGGSGGSGGSGGSDKTHTCPPCPAPEAAGGPSVFLFPPKPKDTLMISRTPEVTCVVVDVSHEDPEVKFNWYVDGVEVHNAKTKPREEQYNSTYRVVSVLTVLHQDWLNGKEYKCQVSNKALPAPIEKTISKAKGQPREPQVCTLPPSRDELTKNQVSLSCAVKGFYPSDIAVEWESNGQPENNYKTTPPVLDSDGSFFLVSKLTVDKSRWQQGNVFSCSVMHEALHNHYTQKSLSLSPGK
chain 2: [letters of human IgG1 Fc with changes omitted]GGSGGSGGSGGSGGSGGSGGSGGSGGSGGSGGSGGSGGSGGSGGSGGSGGSGGSGGSGGSCDLPETHSLDNRRTLMLLAQMSRISPSSCLMDRHDFGFPQEEFDGNQFQKAPAISVLHELIQQIFNLFTTKDSSAAWDEDLLDKFCTELYQQLNDLEACVMQEERVGETPLMNADSILAVKKYFRRITLYLTEKKYSPCAWEVVRAEIMRSLSLSTNLQERLRRKE
